Source: PubChem BioAssay AID686978 (National Center for Advancing Translational Sciences (NCATS), 2013)
The campaign covered roughly 420,000 compounds. About 64,000 (15%) were called active. The shares of active, inactive and inconclusive entries below differ from those in the screen. The call rests on the fitted dose curve; in most records, active means well fitted inhibition curve with a large enough effect; inconclusive means small, poorly fitted or top-dose-only effect; inactive means flat fitted curve, though single readings scatter. Potencies of inconclusive entries are left out as doubtful fits.

Assay: qHTS for Inhibitors of human tyrosyl-DNA phosphodiesterase 1 (TDP1): qHTS in cells in absence of CPT; further: nearly all actives have a fitted effect of over 55% in size
Conditions: DT40 Tdp1-/- hTDP1 cells, no CPT, ATP luminescence, 48 h; activity change, negative = growth inhibition: at 46.2 µM (top of the series) unless noted
Outline: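 Seeded 400 DT40-hTDP1 cells/well (vehicle DMSO, no 20 nM CPT); pinned compounds; ≥48 hr at 37 °C; CellTiter-Glo luminescence as viability measure.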
On the % scale 0 is the no-effect control and ±100 the full control effect; potency means the concentration at half of the fitted maximal effect; tags describe the fitted curve by direction and shape.

Row | Compound | Potency | activity change, negative = growth inhibition
1 | CCN(CCCn1c(=S)[nH]c2ccc(N3CCOCC3)cc2c1=O)c1ccccc1 | active: 20.6 µM | 
2 | O=C(NCC(c1ccco1)N1CCN(c2ccccc2)CC1)c1ccc2c(c1)OCO2 (stereo not given) | inconclusive [inhibitor, partial curve] | 
3 | COC(=O)c1ccc(-n2c(C)ccc2-c2ccccc2)cc1 | inconclusive [inhibitor, single point] | 
4 | COC(=O)C1C(=O)c2c([nH]c(C(=O)OC3CCCCC3)c2C)CC1C (stereo not given) | inconclusive [inhibitor, partial curve] | 
5 | CCCN(CCC)C(=O)CSc1ncccc1C(=O)O |  | inactive: -10.9%
6 | Cc1cc(C(F)(F)F)n2nc(C)c(-c3ccc(Cl)cc3)c2n1 |  | inactive: 0.983%
7 | COc1cc(NC(=O)Cc2ccc(Cl)cc2)ccc1NC(=O)c1ccco1 | inconclusive [inhibitor, single point] | 
8 | CCCNC(=O)OCC12CC3CC(CC(C3)C1)C2 | inconclusive [inhibitor, partial curve, poor fit] | 
9 | O=C(Nc1ccc([N+](=O)[O-])cc1)C1C(c2ccccc2)=C1c1ccccc1 |  | inactive: -27.5%
10 | COc1cccc(-n2c(CN3CCN(c4ccc(C)cc4)C(C)C3)nc3ccc([N+](=O)[O-])cc3c2=O)c1 (stereo not given) | inconclusive [inhibitor, single point] | 
11 | CC(=O)Nc1ccc2nc3c(=O)n(C)c(=O)n(C)c3nc2c1 | inconclusive [inhibitor, partial curve] | 
12 | COc1ccc(CNn2c(-c3cccs3)nc3ccccc3c2=O)cc1OC | active: 10.3 µM | 
13 | CCN(c1ccccc1)S(=O)(=O)c1ccc(F)c(C(=O)Nc2ccc(C)cc2)c1 | active: 11.6 µM | 
14 | O=C(NCc1ccco1)c1ccc(COc2ccc(Cl)cc2)cc1 |  | inactive: 3.03%
15 | COc1cc(COc2ccc3c(C)c(CC(=O)O)c(=O)oc3c2C)cc(OC)c1OC |  | inactive: 17.5%
16 | CN(CCOc1ccccc1)C(=O)c1cc(S(=O)(=O)N2CCOCC2)ccc1Cl | inconclusive [inhibitor, single point] | 
17 | CCOC(=O)c1c(S(=O)(=O)N2CCC(C(=O)NCc3ccccc3OC)CC2)c(C)n(C)c1C |  | inactive: -5.74%
18 | O=C(Nc1cccc(N2CCC(NCc3cnn(-c4ccccc4)n3)CC2)c1)c1cccnc1 | inconclusive [inhibitor, single point] | 
19 | CC(=O)Nc1nc(-c2cc([N+](=O)[O-])cs2)cs1 | inconclusive [inhibitor, single point] | 
20 | CCc1ccc(CN2CCC(n3nccc3NC(=O)c3ccccc3Cl)CC2)cc1 | inconclusive [inhibitor, single point] | 
21 | NC(=O)CC(NC(=O)c1ccccc1)c1ccc(NCCc2ccc(Cl)cc2)c([N+](=O)[O-])c1 (stereo not given) | inconclusive [inhibitor, partial curve] | 
22 | CCOc1ccc(C(=O)Nc2ccc(NC(=S)NC(=O)CC)cc2)cc1Cl |  | inactive: -5.73%
23 | Cc1cc(C)cc(OCC(=O)N(Cc2ccc(Cl)cc2)CC2CCCO2)c1 (stereo not given) | inconclusive [inhibitor, single point] | 
24 | CC(C)(C)Cn1nc(-c2ccc(Cl)cc2)c2c(N)ncnc21 | inconclusive [inhibitor, partial curve] | 

Row | Compound | Potency | activity change, negative = growth inhibition
25 | CC1CC(C)CN(CCCNC(=O)CN2C(=O)c3cccnc3Oc3ccc(Cl)cc32)C1 (stereo not given) |  | inactive: -2.95%
26 | Cc1ccc(SCCC(=O)Nc2cccnc2)cc1 | inconclusive [inhibitor, single point] | 
27 | COc1ccc(N2CCN(CCNC(=O)Nc3ccc(Cl)cc3)CC2)cc1 | inconclusive [inhibitor, partial curve, poor fit] | 
28 | COC(=O)C1=C(CCc2ccccc2)NC(=O)NC1c1ccc(Cl)cc1 (stereo not given) | inconclusive [inhibitor, partial curve, poor fit] | 
29 | c1cc2c(cc1Cn1cnnn1)OCO2 |  | inactive: 6.22%
30 | CC(C)c1ccc(NC(=S)NNc2ccc(Cl)c(C(=O)O)c2)cc1 |  | inactive: 10.6%
31 | O=C(c1ccccc1Cl)N(Cc1ccc(Cl)c(Cl)c1)N1C(=O)CCCC1=O | inconclusive [inhibitor, partial curve] | 
32 | CN(CC1COc2ccccc2O1)C(=O)c1cc(COc2c(F)cccc2F)on1 (stereo not given) | inconclusive [inhibitor, single point] | 
33 | O=C(Nc1ccc(OC(F)(F)F)cc1)c1ccc2nccnc2c1 | inconclusive [inhibitor, single point] | 
34 | O=C(Nc1cccc(-c2cn3cccnc3n2)c1)Nc1ccccc1F | inconclusive [inhibitor, single point] | 
35 | O=C1OC(c2ccccc2)=N/C1=C/c1cccc(OC(=O)c2cccs2)c1 |  | inactive: -29.6%
36 | CCOc1ccc(C(=O)Nc2nnc(SCC(=O)NCC3CCCO3)s2)cc1OCC (stereo not given) |  | inactive: -11.7%
37 | CC12CN(C(=O)c3ccc(Cl)cc3)C3(C#N)CC1CCC23C (stereo not given) | inconclusive [inhibitor, partial curve, poor fit] | 
38 | COc1ccccc1CNC(=O)COC(=O)Cc1c(F)cccc1Cl |  | inactive: -14.8%
39 | CCOc1ccc(N2C(=O)CC(SC(=NC)Nc3cccc(F)c3)C2=O)cc1 (stereo not given) |  | inconclusive: -34.8% [inhibitor]
40 | COc1ccc(-c2nc3ccc(C)cn3c2Nc2ccc3c(c2)OCO3)cc1 |  | inactive: 4.58%
41 | COc1ccc(Cc2nc3ccc(S(=O)(=O)N4CCOCC4)cc3[nH]2)cc1OC | inconclusive [inhibitor, single point] | 
42 | Cc1ccccc1CN1CCN(C(=O)c2cccc(F)c2)CC1 |  | inactive: -24.2%
43 | COc1ccc2cc3c(N)nn(C(=O)c4ccc(Cl)c([N+](=O)[O-])c4)c3nc2c1 | inconclusive [inhibitor, partial curve] | 
44 | Oc1ccc(-c2cnc(-c3ccc(O)cc3)nc2)cc1 | inconclusive [inhibitor, single point] | 
45 | C#CCOCCOCCOCCNc1nc(N2CCN(C(=O)C([C@@H](C)CC)n3cc(C(N)Cc4ccc(O)cc4)nn3)CC2)nc(N2CCN(C(=O)[C@H](CCC(=O)O)n3cc(C(N)CO)nn3)CC2)n1 (stereo not given in full) |  | inactive: 8.29%
46 | COc1ccc(S(=O)(=O)N2CCCCC2c2cc(C(=O)Nc3ccccc3Cl)no2)cc1 (stereo not given) | inconclusive [inhibitor, single point] | 
47 | COCCn1nnnc1C(c1cccs1)N1CCN(c2cc(C)ccc2C)CC1 (stereo not given) | inconclusive [inhibitor, single point] | 
48 | Cc1ccc(NC(=O)CSc2nnc(NC3CC3)s2)cc1S(=O)(=O)N1CCOCC1 |  | inactive: -25.6%

Row | Compound | Potency | activity change, negative = growth inhibition
49 | COc1ccc(N2CCN(CCCNC(=O)c3cc(Nc4ccccc4OC)nc4ccccc34)CC2)cc1 | inconclusive [inhibitor, partial curve, poor fit] | 
50 | CCN(Cc1nc2cc(Cl)ccc2c(=O)[nH]1)C(=O)c1cccc(NC(=O)c2cccs2)c1 | inconclusive [inhibitor, single point] | 
51 | CCCC(=O)Nc1ccc2c(c1)nc(CN1CCN(C(C)=O)CC1)n2C |  | inactive: -13.6%
52 | Cc1ccc2c(Cl)cc(Cl)c(OCC(=O)NC(=O)NCc3ccco3)c2n1 | inconclusive [inhibitor, single point] | 
53 | FC(F)(F)c1cc(-c2ccc(Cl)cc2)nc(NCc2cccnc2)n1 | inconclusive [inhibitor, single point] | 
54 | CN1OC[C@@H]2CN(Cc3ccc(Cl)cc3)[C@H](c3ccc(N4CCCCC4)cc3)C[C@@H]21 | inconclusive [inhibitor, single point] | 
55 | CCCN1CCC(N(C)CCc2ccc(OC)c(OC)c2)CC1 |  | inactive: -1.52%
56 | CCc1cccc(C)c1NC(=O)C1CCN(S(=O)(=O)Cc2ccccc2)CC1 |  | inactive: 1.39%
57 | O=S(=O)(NCCc1ccccc1)c1ccccc1 |  | inactive: -22.6%
58 | Cc1ccc(Nc2nc(Nc3ccc(C)c(C)c3)nc(N3CCOCC3)n2)cc1C | active: 10.3 µM | 
59 | O=C1C2C3c4ccccc4C(c4ccccc43)C2C(=O)N1Cc1cccnc1 (stereo not given) | active: 18.4 µM | 
60 | CC(=O)OCn1ncc(N2CCOCC2)c(Br)c1=O | inconclusive [inhibitor, full curve] | 
61 | Cc1ccc2nc(-c3ccc(C#N)cc3)c(Cc3ccccc3)n2c1 | inconclusive [inhibitor, single point] | 
62 | O=C(O)C1CCN(C(=O)CSc2nc3ccccc3c(=O)n2-c2ccc(Cl)cc2)CC1 |  | inactive: 18.9%
63 | Oc1ccc(-c2c(C3=CCCCC3)sc3ccccc23)cc1 | inconclusive [inhibitor, single point] | 
64 | CCn1cc(C(=O)NCCCOC)c(=O)c2cc(S(=O)(=O)N(C)C3CCCCC3)ccc21 | inconclusive [inhibitor, partial curve, poor fit] | 
65 | O=C1N[C@H]2CC=C[C@H]2Nc2ccccc21 | active: 16.4 µM | 
66 | CCOC(=O)c1c(C)[nH]c(C(=O)OC(C)C(=O)NC2(C#N)CCCCC2)c1C (stereo not given) | inconclusive [inhibitor, single point] | 
67 | O=C(CN(C1CC1)S(=O)(=O)c1ccc(S(=O)(=O)N2CCCCCC2)cc1)Nc1ccccc1 |  | inactive: -25.2%
68 | COc1cccc(OC)c1NC(=O)Cn1nc(C)c2ccccc2c1=O | inconclusive [inhibitor, single point] | 
69 | CC(C)=CCCC(C)CN1CCC(n2nccc2NC(=O)c2ccc3c(c2)OCO3)CC1 (stereo not given) | inconclusive [inhibitor, partial curve] | 
70 | O=C(Nc1ccnn1C1CCN(C(=O)c2ccc(C(F)(F)F)cc2)CC1)C1CC1 |  | inactive: 1.64%
